# Laboratory results: PubChem BioAssay AID1794842 (National Center for Advancing Translational Sciences (NCATS), 2023)
# Hit rate of the full screen: of about 2,800 compounds, fewer than 10 were called active. The call rests on the fitted dose curve; in most records, active means well fitted curve in the direction sought with a large enough effect; inconclusive means small, poorly fitted or top-dose-only effect, or another doubt; inactive means no such curve, though single readings can be large or run the other way. This is one part of the list.
# Biological target: Metallo-beta-lactamase type 2 (Klebsiella pneumoniae) (UniProt C7C422)
# Test: qHTS to identify inhibitors of the New Delhi Metallo-beta-lactamase (NDM): Meropenem screen against the machine-based learning selections. Further: % of control where 0% means no effect.
# Details: Purified NDM-1, meropenem hydrolysis, absorbance 300 nm; at 38.4 µM (top of the series) unless noted
# Outline: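 Hydrolysis by 2 nM NDM-1 was followed by absorbance after >30 min compound preincubation in HEPES pH 7.0 buffer with 1 uM Zn2SO4. For nitrocefin (16.7 uM, 15 min, 485 nm) and meropenem (50 uM, 30 min, 300 nm), each substrate ran on separate plates.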
# Chain of UniProt C7C422 (C7C422 whole entry, looked up): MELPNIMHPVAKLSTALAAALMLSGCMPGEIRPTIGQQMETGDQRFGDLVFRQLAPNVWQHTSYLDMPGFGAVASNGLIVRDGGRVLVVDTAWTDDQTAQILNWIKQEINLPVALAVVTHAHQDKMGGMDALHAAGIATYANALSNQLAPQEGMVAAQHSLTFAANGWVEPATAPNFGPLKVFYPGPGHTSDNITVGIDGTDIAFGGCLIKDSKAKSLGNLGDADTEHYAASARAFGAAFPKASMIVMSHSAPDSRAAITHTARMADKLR
row,SMILES,"activity change, negative = inhibition"
1,O=C(N[C@H](Cc1ccncc1)C1CC(O)C1)c1ccc(CO)o1 (stereo partly specified),inactive: -0.128%
2,Cc1ccc(NC(=O)N2CCCC(Cn3c(C4CC4)nc4cccnc43)C2)c(C)c1 (stereo unspecified),inactive: -0.195%
3,CC(=O)Nc1ccc(S(=O)(=O)N[C@H]2CO[C@H]3[C@@H]2OC[C@@H]3n2nnnc2Oc2ccc(-n3ccnc3)cc2)cc1,inactive: 0.151%
4,Cc1c(CN2C[C@@H](COc3ccccc3)[C@H](C(N)=O)C2)cnn1C,inactive: -2.84%
5,CN1CCC(OCCCn2cnc3cn(C)nc3c2=O)CC1,inactive: -0.7%
6,O=C(NCc1cccnc1)c1ccc2oc(-c3ccc(C(F)(F)F)cc3)nc2c1,inactive: 1.9%
7,CC1(COc2ccccc2)COc2ccc(C(=O)NCCc3ccccn3)cc2N1 (stereo unspecified),inactive: 7.78% [at 57.5 µM]
8,O=C1[C@@H]2C[C@@H](O)CN2C2(CN(C3Cc4ccccc4C3)C2)C(=O)N1Cc1ccccc1F,inactive: 1.17%
9,CC(NC(=O)OCc1ccccc1)c1nc2cccnc2n1C1CCCCC1 (stereo unspecified),inactive: 1.17%
10,O=C1C[C@@H]2CCN(C(=O)Nc3ccccc3)C[C@@H]2CCN1CCc1cnc[nH]1,inactive: 5.4% [at 57.5 µM]
11,COc1cccc(CN2CC3(C2)C(=O)N(Cc2ccccc2F)C(=O)[C@@H]2C[C@@H](O)CN23)c1,inactive: 1%
12,COc1ccc(C2(C(=O)N3CCCC(Cc4nc(C5CCOCC5)no4)C3)CC2)cc1 (stereo unspecified),inactive: -1.04%
13,Cc1nccc(-c2ccccc2)c1C(=O)N[C@H]1C[C@@H]2OCC[C@H]12,inactive: 7.5%
14,C[C@@]1(O)CCN(c2ncccc2C(=O)c2nccs2)C[C@@H]1O,inactive: 8.46%
15,C[C@@H](NS(=O)(=O)c1ccccc1)c1onc(-c2cccnc2)c1C(=O)O,inactive: 2.4% [at 57.5 µM]
16,O=C(NC[C@H]1OC[C@@H](NC2CCC(F)(F)CC2)[C@@H]1O)C1CC1,inactive: 0.28% [at 57.5 µM]
17,c1ccc(-c2nnc3ccc(NCc4cccs4)nn23)nc1,inactive: 9.11% [at 57.5 µM]
18,OCC1CN(c2ccncn2)CC12CCN(Cc1c[nH]c3ccccc13)CC2 (stereo unspecified),inactive: 1.68%
19,CC(C)Oc1ccc(C(=O)N2CCC3(CC2)C(=O)N(C)c2ccccc23)cc1,inactive: -1.61%
20,Cc1ccc(S(=O)(=O)N2C[C@@H](C(N)=O)[C@H](C3CCN(C)CC3)C2)cc1Cl,inactive: -1.93%
21,COc1ccccc1Nc1ncc2c(n1)CN(C(=O)c1cccc(O)c1)CCN2,inactive: 15.1% [at 57.5 µM]
22,COCCNC(=O)C[C@@H]1C[C@H]2O[C@H](CNC(=O)N3CCOCC3)[C@@H](O)[C@H]2O1,inactive: -0.183% [at 57.5 µM]
23,CC(C)(C)C(=O)N1C[C@H]2OC(=O)N(CCc3cccc(Cl)c3)[C@H]2C1,inactive: -2.99%
24,Cc1ccc2c(c1)nc1n2[C@@H](CNCc2ccc(S(C)(=O)=O)cc2)COC1,inactive: 0.808% [at 57.5 µM]
25,CC(Cc1ccc2c(c1)OCO2)CN1CCC(CO)(CN2CCCC2)CC1 (stereo unspecified),inactive: -2.2%
26,COc1ccc(-c2ccnc3nc(CCc4ccccc4)nn23)c(F)c1,inactive: -0.957%

row,SMILES,"activity change, negative = inhibition"
1,OCc1ccnc(-c2ccc(-c3ccn[nH]3)cc2)c1,inactive: 22%
2,Cn1ncc(N2CCC(NC(=O)c3ccsc3)CC2)cc1=O,inactive: 0.878%
3,O=C(CC[C@@H]1CNC(=O)[C@@H]2C[C@H](NCc3ccc(F)cc3)CN12)NCc1ccc(F)cc1,inactive: -0.358%
4,COc1ccc(NC(=O)N[C@H]2CO[C@H]3[C@@H]2OC[C@H]3OC(=O)Nc2ccc(OC)cc2)cc1,inactive: 2.71%
5,COc1ccc(CC2(CO)CCN(c3nccc(N)n3)CC2)cc1,inactive: -1.44%
6,COc1ccc(CN2CCOc3ccc(C(=O)NCc4ccc(C)cc4)cc3C2)c(OC)c1,inactive: 0.837%
7,CC(=O)N1CCC(N2CCOC[C@H]2c2ncc(-c3ccncc3)[nH]2)CC1,inactive: 5.66% [at 57.5 µM]
8,Cc1c(C(=O)N2CCCn3nc(C(C)O)cc3C2)sc2nc[nH]c(=O)c12 (stereo unspecified),inactive: 1.13%
9,O=C1NCC(c2ccc(Cl)cc2)Cc2[nH]c(-c3ccc(O)cc3)nc21 (stereo unspecified),inactive: 8.24%
10,Cc1cc(F)ccc1OC1CN(Cc2ccc(F)cc2)C1,inactive: -0.758% [at 57.5 µM]
11,O=C(O)c1ccccc1C(=O)N[C@H]1CO[C@H]2[C@@H]1OC[C@@H]2n1nnnc1-c1ccc2c(c1)OCO2,inactive: 1.16%
12,O=C(NCCc1ccccn1)C1CCCN(c2nc(-c3ccccc3)nc3c2CCC3)C1 (stereo unspecified),inactive: 29.6%
13,c1ccc(-c2nnc3ccc(NC4CCC4)nn23)nc1,inactive: 17.9% [at 76.7 µM]
14,O=C(O)C1(CCc2ccccc2)CCCN(c2ncnc3nc[nH]c23)C1 (stereo unspecified),inactive: 20.7%
15,NC(=O)Cc1c[nH]c2ncc(-c3ccccc3Oc3ccccc3)cc12,inactive: 5.46% [at 57.5 µM]
16,CCNC(=O)[C@@H]1C[C@H](NC(=O)c2ccccc2)CN1Cc1scnc1C,inactive: -0.341%
17,N#Cc1cccc(CN2CCC(C3=NC(O)c4cc(F)ccc4N3)CC2)c1 (stereo unspecified),inactive: 2.09%
18,C=CCC(=O)N1CCCC1C(=O)Nc1ccc(-c2cccc(OC)c2)cc1 (stereo unspecified),inactive: 8.12%
19,COc1ccc(OC)c(S(=O)(=O)N2C[C@@H](F)C[C@H]2C(=O)N2CCc3ccccc3C2)c1,inactive: 4.62%
20,O=C(N[C@H]1CCN2C(=O)c3cc(-c4ccsc4)ccc3NC(=O)[C@H]12)c1cccc(F)c1,inactive: 1.49%
21,O=C(Cc1c[nH]c2ncc(-c3ccccc3)cc12)NCc1ccncc1,inactive: 2.64% [at 57.5 µM]
22,CSc1cccc(NC(=O)N(C)CC2CCOCC2)c1,inactive: -0.523%
23,CCOc1cc(=O)n2c(c1C(=O)N1CCN(c3ccc(F)cc3)CC1)CCCC2,inactive: 2.67%
24,O=C(Nc1ccccc1)c1cnc2c(c1)N(C(=O)Cc1ccc(O)cc1)CCC2,inactive: 11.6% [at 57.5 µM]
25,COc1ccc(CN2CCNc3cc(-c4ccnc(C)c4)ncc3C2)cc1O,inactive: 4.08% [at 57.5 µM]
